The antibiotic and cytotoxicity screens of Wong et al. (2023)
The list shows a part of the results.

Assays:
[1] = tested on: HSkMC (human skeletal muscle cells); experiment: cytotoxicity call (relative viability < 0.9); conditions: 10 µM
[2] = tested on: HepG2; experiment: cytotoxicity call (relative viability < 0.9); conditions: 10 µM
[3] = tested on: S. aureus RN4220; experiment: growth inhibition call (relative growth <= 0.2); conditions: 50 µM

Row | SMILES | cytotoxicity call [1] | cytotoxicity call [2] | growth inhibition call [3]
1 | CCOC(=O)[C@H]1C/C=C/C[C@H](C(=O)OCC)C(=O)O[C@H]2[C@@H](OC)O[C@H](CO)[C@@H](OC(=O)Nc3ccc4c(c3)OCO4)[C@@H]2OC1=O | active | active | inactive
2 | COc1ccccc1CNC(=O)C[C@H]1C[C@@H]2c3cc(NC(=O)c4ccc5c(c4)OCO5)ccc3O[C@@H]2[C@@H](CO)O1 | inactive | inactive | inactive
3 | C[C@H](CO)N1C[C@H](C)[C@@H](CN(C)C(=O)Nc2ccc3c(c2)OCO3)Oc2ccc(NC(=O)Nc3ccc(C(F)(F)F)cc3)cc2C1=O | inactive | inactive | inactive
4 | C[C@@H]1CN([C@@H](C)CO)C(=O)Cc2cc(NC(=O)c3ccncc3)ccc2O[C@@H]1CN(C)S(=O)(=O)c1ccccc1 | inactive | active | inactive
5 | CC1(C)C=Cc2c(nc3ccccc3c2NCc2ccccc2)C1 | inactive | active | inactive
6 | Cc1ccc(S(=O)(=O)N(C)C[C@H]2Oc3ccc(NS(C)(=O)=O)cc3C(=O)N([C@@H](C)CO)C[C@H]2C)cc1 | inactive | inactive | inactive
7 | CN1CCN(C(=O)C[C@H]2CC[C@H](NC(=O)c3ccc4c(c3)OCO4)[C@@H](CO)O2)CC1 | inactive | inactive | inactive
8 | COc1ccccc1C#Cc1cnc2c(c1)C(=O)N([C@@H](C)CO)C[C@@H](C)[C@H](CN(C)S(=O)(=O)c1cn(C)cn1)O2 | inactive | active | inactive
9 | N[C@H]1CCc2nc3ccccc3c(=O)n2[C@@H]1c1ccsc1 | inactive | inactive | inactive
10 | C[C@@H]1CN([C@H](C)CO)C(=O)c2cc(NS(=O)(=O)c3ccccc3)ccc2O[C@@H](C)CCCCO[C@@H]1CN(C)C(=O)C1CCCCC1 | inactive | inactive | inactive
11 | C[C@@H]1CN([C@H](C)CO)S(=O)(=O)c2ccc(-c3cccc(F)c3)cc2O[C@@H]1CN(C)S(C)(=O)=O | inactive | inactive | inactive
12 | C[C@H]1CN([C@@H](C)CO)C(=O)Cc2cc(NC(=O)NC3CCCCC3)ccc2O[C@@H]1CN(C)Cc1ccc(-c2ccccc2)cc1 | inactive | inactive | inactive
13 | COc1ccc(NC(=O)Nc2ccc3c(c2)C(=O)N([C@@H](C)CO)C[C@@H](C)[C@H](CN(C)Cc2ccc(Cl)c(Cl)c2)O3)cc1 | inactive | inactive | inactive
14 | CN1CCC[C@H]1CO | inactive | inactive | inactive
15 | CC(C)NC(=O)N(C)C[C@H]1OCCCC[C@H](C)Oc2ccc(NS(C)(=O)=O)cc2C(=O)N([C@H](C)CO)C[C@@H]1C | inactive | inactive | inactive
16 | Cc1ccc(S(=O)(=O)Nc2ccc3c(c2)C(=O)N([C@@H](C)CO)C[C@@H](C)[C@H](CN(C)S(C)(=O)=O)OCCCC[C@@H](C)O3)cc1 | inactive | inactive | inactive
17 | Cc1ccc(S(=O)(=O)Nc2ccc3c(c2)C(=O)N([C@H](C)CO)C[C@@H](C)[C@@H](CN(C)C(=O)Cc2ccccc2)OCCCC[C@H](C)O3)cc1 | inactive | inactive | inactive
18 | CCCNC(=O)C[C@@H]1CC[C@H]2[C@H](COc3ccc(NC(=O)c4ccc5c(c4)OCO5)cc3C(=O)N2C)O1 | inactive | inactive | inactive
19 | C[C@H](CO)N1C[C@H](C)[C@@H](CN(C)C(=O)c2ccccc2)OCCCC[C@H](C)Oc2ccc(NC(=O)c3ccccc3)cc2C1=O | inactive | inactive | inactive
20 | O=C(OC[C@]12O[C@H]1[C@@H](O)[C@@H]1C=CO[C@@H](O[C@@H]3O[C@H](CO)[C@@H](O)[C@H](O)[C@H]3O)[C@@H]12)c1ccccc1 | inactive | inactive | inactive
21 | CN(C)C(=O)c1ccc(-c2cccc(-c3nc(C(=O)NC4CCCCC4)cc4c3[C@@H](CCO)N([S@](=O)C(C)(C)C)C4)c2)cc1 | inactive | inactive | inactive
22 | Cc1ccc(S[C@]2(C(=O)NCC(F)(F)F)CC(=O)N(Cc3ccccc3)[C@@H]2c2ccc(CO)cc2I)cc1 | inactive | inactive | inactive
23 | CCCCCC1C(=O)CCC1CC(=O)OC (stereo not given) | inactive | inactive | inactive
24 | Cc1ccc(S(=O)(=O)Nc2ccc3c(c2)C(=O)N([C@@H](C)CO)C[C@H](C)[C@H](CN(C)C(=O)Nc2ccc(C(F)(F)F)cc2)OCCCC[C@H](C)O3)cc1 | inactive | inactive | inactive
25 | C[C@@H]1CCCCO[C@H](CN(C)Cc2ccc3c(c2)OCO3)[C@@H](C)CN([C@@H](C)CO)C(=O)c2cc(NC(=O)Nc3ccccc3)ccc2O1 | inactive | inactive | inactive
